Reference: article PMC11402128, “The stability of FKBP9 maintained by BiP is crucial for glioma progression” (Genes & Diseases, 2023)
These are yes or no findings as the source states them, for the method shown. Binding seen in cells or lysates may run through a third protein. Some results given as binding are weak or reduced against the parent protein; the word gives no strength. For part of these data: Sequences can lack the tags named with a protein.

Protein sequences, listed by entry. Tags and fused reporters are not part of them. Residues count along the entry.
UniProt P11021, residues 19-654: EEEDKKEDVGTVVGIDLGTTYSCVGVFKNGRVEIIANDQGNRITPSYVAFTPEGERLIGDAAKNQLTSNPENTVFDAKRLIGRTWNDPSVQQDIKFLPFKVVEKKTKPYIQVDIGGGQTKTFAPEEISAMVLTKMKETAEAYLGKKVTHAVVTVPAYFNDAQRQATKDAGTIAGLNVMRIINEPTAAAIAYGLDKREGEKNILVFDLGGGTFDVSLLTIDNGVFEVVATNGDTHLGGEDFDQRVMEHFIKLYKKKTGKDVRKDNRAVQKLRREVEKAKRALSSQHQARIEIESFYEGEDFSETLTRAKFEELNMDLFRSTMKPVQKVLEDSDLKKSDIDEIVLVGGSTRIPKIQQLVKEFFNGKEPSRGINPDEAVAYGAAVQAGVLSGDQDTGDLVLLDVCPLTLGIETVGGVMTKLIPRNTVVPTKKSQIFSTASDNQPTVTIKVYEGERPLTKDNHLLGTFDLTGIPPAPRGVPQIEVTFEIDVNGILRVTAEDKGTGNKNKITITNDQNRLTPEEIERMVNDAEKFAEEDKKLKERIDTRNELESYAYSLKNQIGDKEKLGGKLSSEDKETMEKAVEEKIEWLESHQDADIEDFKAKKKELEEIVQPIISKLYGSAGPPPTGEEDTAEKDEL
UniProt Q00613: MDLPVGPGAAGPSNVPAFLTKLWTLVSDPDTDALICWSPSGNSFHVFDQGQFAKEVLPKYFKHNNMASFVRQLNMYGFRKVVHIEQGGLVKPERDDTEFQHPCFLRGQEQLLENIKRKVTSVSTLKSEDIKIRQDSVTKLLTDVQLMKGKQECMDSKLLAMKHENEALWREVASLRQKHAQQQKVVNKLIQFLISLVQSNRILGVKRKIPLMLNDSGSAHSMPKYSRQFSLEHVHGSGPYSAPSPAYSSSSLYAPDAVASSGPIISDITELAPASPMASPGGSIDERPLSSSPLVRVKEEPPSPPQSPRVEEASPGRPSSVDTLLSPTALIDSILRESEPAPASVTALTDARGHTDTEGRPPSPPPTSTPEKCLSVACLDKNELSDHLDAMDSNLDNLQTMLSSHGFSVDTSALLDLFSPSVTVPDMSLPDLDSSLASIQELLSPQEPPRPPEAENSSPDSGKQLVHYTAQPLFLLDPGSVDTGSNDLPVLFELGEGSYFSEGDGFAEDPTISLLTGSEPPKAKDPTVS
UniProt P10809, residues 27-573: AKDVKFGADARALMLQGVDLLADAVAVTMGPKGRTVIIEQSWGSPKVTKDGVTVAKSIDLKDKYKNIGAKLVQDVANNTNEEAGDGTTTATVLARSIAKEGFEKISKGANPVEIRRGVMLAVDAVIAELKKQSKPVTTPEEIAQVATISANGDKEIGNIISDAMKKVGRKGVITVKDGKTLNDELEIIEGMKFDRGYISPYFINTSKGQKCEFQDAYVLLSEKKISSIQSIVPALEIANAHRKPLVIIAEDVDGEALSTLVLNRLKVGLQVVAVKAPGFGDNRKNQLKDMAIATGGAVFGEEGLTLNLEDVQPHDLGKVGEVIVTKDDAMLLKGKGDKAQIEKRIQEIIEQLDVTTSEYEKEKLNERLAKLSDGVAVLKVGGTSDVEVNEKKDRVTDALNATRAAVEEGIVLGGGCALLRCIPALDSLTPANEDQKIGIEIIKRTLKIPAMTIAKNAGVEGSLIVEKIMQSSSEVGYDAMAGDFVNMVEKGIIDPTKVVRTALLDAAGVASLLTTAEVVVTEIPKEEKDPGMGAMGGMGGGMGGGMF

T1: Flag-HA-labeled FKBP9 (FKBP9-HA) (human) (UniProt O95302)
T1 sequence: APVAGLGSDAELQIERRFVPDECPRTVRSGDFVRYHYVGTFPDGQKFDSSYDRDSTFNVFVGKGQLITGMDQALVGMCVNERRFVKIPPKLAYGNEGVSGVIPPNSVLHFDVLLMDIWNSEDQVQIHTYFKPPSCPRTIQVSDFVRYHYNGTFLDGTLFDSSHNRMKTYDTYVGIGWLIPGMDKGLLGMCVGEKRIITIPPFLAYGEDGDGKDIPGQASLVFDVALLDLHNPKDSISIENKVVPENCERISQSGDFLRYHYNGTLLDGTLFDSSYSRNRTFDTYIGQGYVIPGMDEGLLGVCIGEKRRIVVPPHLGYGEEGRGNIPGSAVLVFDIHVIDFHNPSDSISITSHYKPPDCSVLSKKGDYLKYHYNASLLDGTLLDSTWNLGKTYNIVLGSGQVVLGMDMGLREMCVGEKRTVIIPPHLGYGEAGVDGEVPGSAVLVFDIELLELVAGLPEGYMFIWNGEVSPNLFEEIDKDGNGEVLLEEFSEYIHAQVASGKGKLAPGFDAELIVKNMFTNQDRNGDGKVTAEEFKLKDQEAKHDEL

T2: FK506-binding protein 9 (FKBP9), endogenous (human (endogenous in T98G and U251)) (UniProt O95302)
T2 sequence: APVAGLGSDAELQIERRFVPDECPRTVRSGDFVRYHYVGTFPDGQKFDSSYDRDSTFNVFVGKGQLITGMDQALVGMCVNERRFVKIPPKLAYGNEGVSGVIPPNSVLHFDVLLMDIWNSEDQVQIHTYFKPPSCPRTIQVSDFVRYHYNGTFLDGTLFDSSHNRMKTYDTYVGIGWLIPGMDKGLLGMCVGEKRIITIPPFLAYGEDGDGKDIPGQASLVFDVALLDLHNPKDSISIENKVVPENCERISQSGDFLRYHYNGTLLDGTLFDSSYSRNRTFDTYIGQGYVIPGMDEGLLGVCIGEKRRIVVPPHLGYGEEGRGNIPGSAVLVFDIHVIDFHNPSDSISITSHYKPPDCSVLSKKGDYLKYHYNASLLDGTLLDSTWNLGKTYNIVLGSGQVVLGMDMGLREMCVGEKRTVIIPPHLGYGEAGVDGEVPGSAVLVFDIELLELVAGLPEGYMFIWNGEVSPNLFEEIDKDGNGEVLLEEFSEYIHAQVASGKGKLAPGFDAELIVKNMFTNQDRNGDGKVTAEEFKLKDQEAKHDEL


Assays:
[1] = biological target: T1, Flag-HA-labeled FKBP9 (FKBP9-HA) (human); test: co-IP; HA antibody co-immunoprecipitation from lysate of T98G cells expressing HA-tagged proteins (FKBP9-HA, 1461-HA, 903-HA, BiP-HA or EGFP-HA), detected by Western blot; buffer 50 mM Tris-HCl pH 7.4, 150 mM NaCl, 3 mM EDTA, 0.5% Triton X-100
[2] = biological target: T2, FK506-binding protein 9 (FKBP9), endogenous (human (endogenous in T98G and U251)); test: co-IP; endogenous proteins; FKBP9 antibody co-immunoprecipitation from protein lysate of T98G and U251 cells, IgG as negative control, Western blot
[3] = biological target: Flag-HA-labeled BiP (BiP-HA) (human) (UniProt P11021); test: co-IP; HA antibody co-immunoprecipitation from lysate of T98G cells expressing HA-tagged proteins (FKBP9-HA, 1461-HA, 903-HA, BiP-HA or EGFP-HA), detected by Western blot; buffer 50 mM Tris-HCl pH 7.4, 150 mM NaCl, 3 mM EDTA, 0.5% Triton X-100

Molecule	binding [1]	binding [2]	binding [3]
HSF1, endogenous (from UniProt Q00613 1-529)	no binding	–	–
binding immunoglobulin protein (BiP), endogenous (from UniProt P11021 19-654)	binds	binds	–
Hsp60, endogenous (from UniProt P10809 27-573)	no binding	–	–
human recombinant protein FKBP9 (TP322307, Origene) (natural protein, UniProt O95302 25-570, looked up, also called purified FKBP9; source: bought: Origene (TP322307)) APVAGLGSDAELQIERRFVPDECPRTVRSGDFVRYHYVGTFPDGQKFDSSYDRDSTFNVFVGKGQLITGMDQALVGMCVNERRFVKIPPKLAYGNEGVSGVIPPNSVLHFDVLLMDIWNSEDQVQIHTYFKPPSCPRTIQVSDFVRYHYNGTFLDGTLFDSSHNRMKTYDTYVGIGWLIPGMDKGLLGMCVGEKRIITIPPFLAYGEDGDGKDIPGQASLVFDVALLDLHNPKDSISIENKVVPENCERISQSGDFLRYHYNGTLLDGTLFDSSYSRNRTFDTYIGQGYVIPGMDEGLLGVCIGEKRRIVVPPHLGYGEEGRGNIPGSAVLVFDIHVIDFHNPSDSISITSHYKPPDCSVLSKKGDYLKYHYNASLLDGTLLDSTWNLGKTYNIVLGSGQVVLGMDMGLREMCVGEKRTVIIPPHLGYGEAGVDGEVPGSAVLVFDIELLELVAGLPEGYMFIWNGEVSPNLFEEIDKDGNGEVLLEEFSEYIHAQVASGKGKLAPGFDAELIVKNMFTNQDRNGDGKVTAEEFKLKDQEAKHDEL	–	–	binds
Calnexin, endogenous (protein, UniProt P27824 21-592) HDGHDDDVIDIEDDLDDVIEEVEDSKPDTTAPPSSPKVTYKAPVPTGEVYFADSFDRGTLSGWILSKAKKDDTDDEIAKYDGKWEVEEMKESKLPGDKGLVLMSRAKHHAISAKLNKPFLFDTKPLIVQYEVNFQNGIECGGAYVKLLSKTPELNLDQFHDKTPYTIMFGPDKCGEDYKLHFIFRHKNPKTGIYEEKHAKRPDADLKTYFTDKKTHLYTLILNPDNSFEILVDQSVVNSGNLLNDMTPPVNPSREIEDPEDRKPEDWDERPKIPDPEAVKPDDWDEDAPAKIPDEEATKPEGWLDDEPEYVPDPDAEKPEDWDEDMDGEWEAPQIANPRCESAPGCGVWQRPVIDNPNYKGKWKPPMIDNPSYQGIWKPRKIPNPDFFEDLEPFRMTPFSAIGLELWSMTSDIFFDNFIICADRRIVDDWANDGWGLKKAADGAAEPGVVGQMIEAAEERPWLWVVYILTVALPVFLVILFCCSGKKQTSGMEYKKTDAPQPDVKEEEEEKEEEKDKGDEEEEGEEKLEEKQKSDAEEDGGTVSQEEEDRKPKAEEDEILNRSPRNRKPRRE	no binding	–	–
